# According to PubChem BioAssay (NCATS):
# The shares of active, inactive and inconclusive entries below differ from those in the screen. For part of these data: No potency is given beside an inconclusive call; the fits are too rough. Calls of active or inactive are those of the source. Unless noted, calls come from the whole dose curve; as a rule, active = well fitted curve in the direction sought with a large enough effect; inconclusive = small, poorly fitted or top-dose-only effect, or another doubt; inactive = no such curve, though single readings can be large; an effect the other way counts as inactive or inconclusive.
# Tests used:
# [1] = biological target: DNA polymerase eta (Homo sapiens) (UniProt Q9Y253); assay: qHTS for Inhibitors of Polymerase Eta: Confirmatory Assay for Cherry-picked Compounds (AID 720502); conditions: Pol eta primer extension, TAMRA/BHQ fluorescence, 10 min; note: potency is the fitted concentration of half-maximal effect
# Method in brief: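 Enzyme at 10 nM is mixed with pin-transferred compound and left 15 min at room temperature. Substrate (50 nM final) is then added, and plates are read at 0 min and after 10 min.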
# [2] = biological target: Rap guanine nucleotide exchange factor 3 (Homo sapiens) (UniProt O95398); assay: Confirmatory qHTS for antagonist of cAMP-regulated guanine nucleotide exchange factor 3 (EPAC1) (AID 1645880); conditions: EPAC1 Rap1B-BODIPY-GDP exchange, fluorescence; series mostly up to 115 µM; note: nearly all actives have a fitted effect of over 55% in size; note: potency is the fitted concentration of half-maximal effect
# Method in brief: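 Released BODIPY-GDP fluoresces less than Rap1-bound BODIPY-GDP; the signal is followed at 480/540 nm at 5-min intervals over 30 min, after 5 min at room temperature. Reactions contain 100 nM EPAC1, 250 nM RAP1B-BODIPY-GDP and 50 uM GDP; results are normalized to ATA and DMSO.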
# [3] = qHTS Assay for Identification of Small Molecule Agonists for Hypoxia Response Element Signaling Pathway (AID 914; active = well fitted activation curve with a large enough effect in the signal ratio, with a control signal flat, not every such curve was filed as active; inconclusive = small, poorly fitted or top-dose-only effect, or effect the other way, or a change in a side signal; the % refers to the signal ratio; note: potency is the fitted concentration of half-maximal effect; for activation: top concentration of the series differs between compounds; % of control where 0% means no effect); conditions: ME-180 (cervical carcinoma) HRE-bla reporter, beta-lactamase ratio, CoCl2, 17 h; activation: active compounds read high
# Method in brief: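 Compounds in a titration series were added to ME-180 reporter cells alongside an EC50 level of CoCl2. After 17 hours, beta-lactamase activity was read as the 460nm/530nm emission ratio of CCF4, giving AC50 values.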
# [4] = biological target: Bifunctional 3'-5' exonuclease/ATP-dependent helicase WRN (Homo sapiens) (UniProt Q14191); assay: qHTS for Inhibitors of WRN Helicase: Confirmatory Assay for Cherry-picked Compounds. (AID 720497); conditions: WRN helicase DNA unwinding, fluorescence kinetic; series mostly up to 57.1 µM; note: potency is the fitted concentration of half-maximal effect; nearly all actives have a fitted effect of over 65% in size
# Method in brief: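 WRN (20 nM) was preincubated 15 min at RT with compound, then started with 100 nM forked duplex oligonucleotide and 2 mM ATP. Unwinding was read kinetically by red fluorescence (ex 525/em 598 nm), normalized to enzyme-free and uninhibited controls.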
# [5] = biological target: Rap guanine nucleotide exchange factor 3 (Homo sapiens) (UniProt O95398); assay: Confirmatory qHTS for agonist of cAMP-regulated guanine nucleotide exchange factor 3 (EPAC1) (AID 1645881); conditions: EPAC1 Rap1B BODIPY-GDP exchange fluorescence; activation: at 154 µM (top of the series), 100% = cAMP control response; note: nearly all actives have a fitted effect of over 75% in size; note: potency is the fitted concentration of half-maximal effect;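 for activation: EPAC1 catalysed release of BODIPY-GDP from Rap1B seen as fluorescence loss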
# [6] = biological target: DNA polymerase iota (Homo sapiens) (UniProt Q9UNA4); assay: qHTS for Inhibitors of Polymerase Iota: Confirmatory Assay for Cherry-picked Compounds (AID 720496); conditions: Pol iota primer extension, TAMRA/BHQ fluorescence; note: potency is the fitted concentration of half-maximal effect
# Method in brief: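 10 nM Pol iota + cpd, 15 min RT; start w/ 50 nM (final) TAMRA reporter/BHQ-2 template primer substrate; ex 525/em 598 nm read at 0 and 10 min kinetic.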
# [7] = biological target: Rap guanine nucleotide exchange factor 4 (Homo sapiens) (UniProt Q8WZA2); assay: Confirmatory qHTS for agonist of cAMP-regulated guanine nucleotide exchange factor 4 (EPAC2) (AID 1645884); conditions: EPAC2 GEF activity, Rap1B-BODIPY-GDP fluorescence; series mostly up to 154 µM;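 note: nucleotide exchange releases bodipy-GDP from Rap1 and this lowers its fluorescence; nearly all actives have a fitted effect of over 65% in size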; note: potency is the fitted concentration of half-maximal effect; for activation: % is set by controls: 0 for no effect and ±100 for the full control effect
# [8] = biological target: Rap guanine nucleotide exchange factor 3 (Homo sapiens) (UniProt O95398); assay: Counterscreen qHTS for agonist of cAMP-regulated guanine nucleotide exchange factor 3 (EPAC1) (AID 1645889); conditions: EPAC1 Rap1B-BODIPY-GDP exchange, fluorescence; activation: at 154 µM (top of the series) unless noted; note: nearly all actives have a fitted effect of over 40% in size; note: potency is the fitted concentration of half-maximal effect; for activation: % of control where 0% means no effect
# Method in brief: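 Rap1B–BODIPY-GDP (250 nM) with 50 uM GDP; compounds pin-transferred to 9.74 nM–152 uM final (activator) or from 7.32 nM upwards (inhibitor). Fluorescence Ex/Em 480/540 nm read at 5 and 30 min, then after adding cAMP or buffer, at room temperature.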
# [9] = biological target: Dual specificity protein kinase CLK4 (Homo sapiens) (UniProt Q9HAZ1); assay: qHTS Assay for Inhibitors of CDC-like Kinase 4 (ADP-Glo Assay) (AID 1771); conditions: recombinant CLK4, ADP-Glo luminescence; series mostly up to 80 µM; note: % is set by controls: 0 for no effect and ±100 for the full control effect; nearly all actives have a fitted effect of over 70% in size
# Method in brief: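 In this ADP-Glo format, 1 uM ATP and 100 uM RS peptide served as substrates for 25 nM Clk4 in Mg2+/EGTA/DTT/Triton buffer; reactions ran 1 hr at room temperature before luminescent ADP quantification.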
# [10] = biological target: Ubiquitin carboxyl-terminal hydrolase 1 (Homo sapiens) (UniProt O94782); assay: Inhibitors of USP1/UAF1: Pilot qHTS (AID 504865); conditions: purified USP1/UAF1, Ub-rhodamine cleavage fluorescence; series mostly up to 54.9 µM;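 note: rhodamine fluorescence freed from ubiquitin-rhodamine substrate followed over time; potency is the fitted concentration of half-maximal effect; nearly all actives have a fitted effect of over 35% in size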
# Method in brief: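 USP1/UAF1 complex at 1 nM preincubated 15 min at room temperature with compound, then Ub-Rho substrate added at 150 nM final. Fluorescence (480/540 nm) read kinetically in 50 mM HEPES pH 7.8, 0.5 mM EDTA, 1 mM TCEP, 0.1 mg/ml BSA, 0.01% Tween-20.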
# [11] = biological target: Rap guanine nucleotide exchange factor 4 (Homo sapiens) (UniProt Q8WZA2); assay: Confirmatory qHTS for antagonist of cAMP-regulated guanine nucleotide exchange factor 4 (EPAC2) (AID 1645885); conditions: EPAC2 Rap1B-BODIPY-GDP exchange fluorescence, biochemical; activity change, negative = inhibition: at 12.7 µM (top of the series) unless noted; series mostly up to 114 µM; note: nearly all actives have a fitted effect of over 25% in size; note: potency is the fitted concentration of half-maximal effect; for activity change, negative = inhibition: % is set by controls: 0 for no effect and ±100 for the full control effect
# [12] = NFAT Signaling Pathway (AID 444; active = well fitted curve in either direction with a large enough effect, not every such curve was filed as active; inconclusive = small, poorly fitted or top-dose-only effect, or another doubt;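 note: carbachol stimulus at about its EC50 of 1 µM final; % is set by controls: 0 for no effect and ±100 for the full control effect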); conditions: Jurkat NFAT-bla M1, carbachol, beta-lactamase ratio, 5 h; at 17.2 µM (top of the series) unless noted
# Method in brief: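 Jurkat cells with NFAT-driven β-lactamase reporter and co-expressed M1 receptor, stimulated with carbachol (final 1 uM, ~EC50), compound titration, 5 h at 37 °C. CCF4 loaded 1 h at RT; 460/530 nm ratio gave %activity and AC50.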
# Tags give direction and shape of the fitted curve or compound fluorescence and quenching.
# Chain of UniProt Q9Y253 (Q9Y253 whole entry, looked up): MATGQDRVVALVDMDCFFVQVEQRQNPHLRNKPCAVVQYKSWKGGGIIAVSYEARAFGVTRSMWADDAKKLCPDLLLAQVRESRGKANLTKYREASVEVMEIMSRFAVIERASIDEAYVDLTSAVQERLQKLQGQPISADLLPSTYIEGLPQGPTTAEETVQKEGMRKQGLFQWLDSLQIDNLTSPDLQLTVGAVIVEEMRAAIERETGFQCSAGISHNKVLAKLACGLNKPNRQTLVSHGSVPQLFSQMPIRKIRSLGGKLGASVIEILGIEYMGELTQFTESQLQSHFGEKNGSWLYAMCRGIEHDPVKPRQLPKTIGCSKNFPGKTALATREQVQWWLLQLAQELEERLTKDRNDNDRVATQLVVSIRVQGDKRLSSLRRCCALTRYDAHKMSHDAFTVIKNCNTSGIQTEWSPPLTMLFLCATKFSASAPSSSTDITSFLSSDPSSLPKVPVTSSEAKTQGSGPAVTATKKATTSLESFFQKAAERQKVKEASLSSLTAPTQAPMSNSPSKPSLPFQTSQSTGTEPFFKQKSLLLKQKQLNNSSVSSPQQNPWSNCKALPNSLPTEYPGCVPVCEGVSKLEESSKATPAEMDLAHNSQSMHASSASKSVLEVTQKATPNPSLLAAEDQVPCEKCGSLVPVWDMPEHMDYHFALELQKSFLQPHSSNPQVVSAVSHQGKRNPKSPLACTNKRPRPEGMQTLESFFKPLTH
# Chain of UniProt O95398 (O95398 whole entry, looked up): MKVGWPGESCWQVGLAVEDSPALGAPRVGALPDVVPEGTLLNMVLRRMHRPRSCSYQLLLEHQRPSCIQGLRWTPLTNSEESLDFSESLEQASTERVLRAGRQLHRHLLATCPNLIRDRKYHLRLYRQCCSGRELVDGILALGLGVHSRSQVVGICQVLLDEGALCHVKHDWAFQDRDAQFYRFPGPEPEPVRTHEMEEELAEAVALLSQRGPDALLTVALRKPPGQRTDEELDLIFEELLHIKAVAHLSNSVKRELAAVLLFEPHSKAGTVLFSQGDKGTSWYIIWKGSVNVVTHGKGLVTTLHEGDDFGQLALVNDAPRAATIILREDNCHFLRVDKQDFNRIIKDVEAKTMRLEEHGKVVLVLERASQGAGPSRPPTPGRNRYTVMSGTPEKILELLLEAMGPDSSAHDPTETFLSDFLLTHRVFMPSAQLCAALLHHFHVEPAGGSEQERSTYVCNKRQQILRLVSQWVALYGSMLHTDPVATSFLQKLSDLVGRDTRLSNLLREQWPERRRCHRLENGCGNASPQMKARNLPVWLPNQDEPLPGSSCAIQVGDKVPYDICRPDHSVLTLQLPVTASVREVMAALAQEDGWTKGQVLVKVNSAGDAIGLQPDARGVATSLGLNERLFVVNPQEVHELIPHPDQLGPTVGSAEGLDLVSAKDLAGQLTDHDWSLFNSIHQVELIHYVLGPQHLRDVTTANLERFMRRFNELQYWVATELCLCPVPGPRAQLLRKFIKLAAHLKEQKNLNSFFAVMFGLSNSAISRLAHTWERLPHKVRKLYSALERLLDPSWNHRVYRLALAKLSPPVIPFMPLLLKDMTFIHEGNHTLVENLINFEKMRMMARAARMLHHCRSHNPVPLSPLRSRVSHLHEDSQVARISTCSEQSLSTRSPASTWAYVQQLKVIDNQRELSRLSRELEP
# Chain of UniProt Q8WZA2 (Q8WZA2 whole entry, looked up): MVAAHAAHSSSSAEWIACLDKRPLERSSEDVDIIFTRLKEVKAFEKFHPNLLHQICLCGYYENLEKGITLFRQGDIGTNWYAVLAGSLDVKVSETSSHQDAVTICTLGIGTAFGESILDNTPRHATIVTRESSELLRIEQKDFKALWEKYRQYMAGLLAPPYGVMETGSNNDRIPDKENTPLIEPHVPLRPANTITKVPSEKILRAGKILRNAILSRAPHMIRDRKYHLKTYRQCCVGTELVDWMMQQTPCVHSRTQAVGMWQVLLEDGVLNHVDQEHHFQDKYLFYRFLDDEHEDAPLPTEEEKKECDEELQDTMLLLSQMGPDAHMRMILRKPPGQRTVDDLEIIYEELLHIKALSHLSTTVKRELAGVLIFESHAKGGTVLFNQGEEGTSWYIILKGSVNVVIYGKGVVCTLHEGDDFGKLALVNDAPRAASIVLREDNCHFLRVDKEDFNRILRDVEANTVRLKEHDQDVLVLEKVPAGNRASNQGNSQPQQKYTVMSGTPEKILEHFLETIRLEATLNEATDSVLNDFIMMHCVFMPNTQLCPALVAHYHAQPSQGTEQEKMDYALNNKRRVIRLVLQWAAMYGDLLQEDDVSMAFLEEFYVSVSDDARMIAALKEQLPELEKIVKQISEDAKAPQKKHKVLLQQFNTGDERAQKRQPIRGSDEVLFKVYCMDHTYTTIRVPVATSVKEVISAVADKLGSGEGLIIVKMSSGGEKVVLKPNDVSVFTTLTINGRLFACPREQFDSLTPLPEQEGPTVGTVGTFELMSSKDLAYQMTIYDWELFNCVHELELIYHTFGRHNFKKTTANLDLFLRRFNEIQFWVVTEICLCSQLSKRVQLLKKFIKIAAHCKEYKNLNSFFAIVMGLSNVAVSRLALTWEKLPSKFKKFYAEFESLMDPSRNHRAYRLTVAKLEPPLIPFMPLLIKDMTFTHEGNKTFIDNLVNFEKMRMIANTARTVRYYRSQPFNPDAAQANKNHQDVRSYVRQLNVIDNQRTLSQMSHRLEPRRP
# Chain of UniProt Q9HAZ1 (Q9HAZ1 whole entry, looked up): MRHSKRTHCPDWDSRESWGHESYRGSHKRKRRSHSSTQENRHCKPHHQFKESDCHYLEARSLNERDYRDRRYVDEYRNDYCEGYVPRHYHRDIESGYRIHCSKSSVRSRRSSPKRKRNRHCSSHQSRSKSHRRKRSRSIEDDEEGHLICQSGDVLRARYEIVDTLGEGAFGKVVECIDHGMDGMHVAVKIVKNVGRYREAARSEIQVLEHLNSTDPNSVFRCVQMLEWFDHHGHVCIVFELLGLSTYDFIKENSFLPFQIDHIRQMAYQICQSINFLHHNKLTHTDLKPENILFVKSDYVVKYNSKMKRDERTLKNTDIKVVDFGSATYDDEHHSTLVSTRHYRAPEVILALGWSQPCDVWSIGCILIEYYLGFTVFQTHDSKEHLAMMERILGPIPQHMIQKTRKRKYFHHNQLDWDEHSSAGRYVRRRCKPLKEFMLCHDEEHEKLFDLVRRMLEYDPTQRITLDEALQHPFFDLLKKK
# Chain of UniProt O94782 (O94782 whole entry, looked up): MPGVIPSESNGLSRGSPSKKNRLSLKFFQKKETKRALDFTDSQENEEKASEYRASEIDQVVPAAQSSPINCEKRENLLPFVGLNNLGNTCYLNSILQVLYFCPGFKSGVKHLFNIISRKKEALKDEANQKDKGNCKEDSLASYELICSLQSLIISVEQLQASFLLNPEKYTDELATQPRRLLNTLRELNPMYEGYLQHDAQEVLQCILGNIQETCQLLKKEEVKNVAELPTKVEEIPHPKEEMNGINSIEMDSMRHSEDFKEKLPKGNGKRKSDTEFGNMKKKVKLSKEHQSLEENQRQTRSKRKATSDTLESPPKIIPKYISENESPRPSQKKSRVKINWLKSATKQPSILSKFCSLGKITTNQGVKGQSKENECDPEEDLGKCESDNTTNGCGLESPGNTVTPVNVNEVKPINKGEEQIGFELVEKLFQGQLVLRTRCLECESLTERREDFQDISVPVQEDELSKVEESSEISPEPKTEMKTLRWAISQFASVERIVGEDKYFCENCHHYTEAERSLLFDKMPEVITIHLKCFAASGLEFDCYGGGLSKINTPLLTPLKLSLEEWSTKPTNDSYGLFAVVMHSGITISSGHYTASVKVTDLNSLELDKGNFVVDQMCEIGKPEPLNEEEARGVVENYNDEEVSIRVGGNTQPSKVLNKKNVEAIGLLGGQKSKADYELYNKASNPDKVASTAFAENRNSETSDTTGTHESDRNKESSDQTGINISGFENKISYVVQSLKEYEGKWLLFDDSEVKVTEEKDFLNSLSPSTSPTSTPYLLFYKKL
# Chain of UniProt Q9UNA4 (Q9UNA4 whole entry, looked up): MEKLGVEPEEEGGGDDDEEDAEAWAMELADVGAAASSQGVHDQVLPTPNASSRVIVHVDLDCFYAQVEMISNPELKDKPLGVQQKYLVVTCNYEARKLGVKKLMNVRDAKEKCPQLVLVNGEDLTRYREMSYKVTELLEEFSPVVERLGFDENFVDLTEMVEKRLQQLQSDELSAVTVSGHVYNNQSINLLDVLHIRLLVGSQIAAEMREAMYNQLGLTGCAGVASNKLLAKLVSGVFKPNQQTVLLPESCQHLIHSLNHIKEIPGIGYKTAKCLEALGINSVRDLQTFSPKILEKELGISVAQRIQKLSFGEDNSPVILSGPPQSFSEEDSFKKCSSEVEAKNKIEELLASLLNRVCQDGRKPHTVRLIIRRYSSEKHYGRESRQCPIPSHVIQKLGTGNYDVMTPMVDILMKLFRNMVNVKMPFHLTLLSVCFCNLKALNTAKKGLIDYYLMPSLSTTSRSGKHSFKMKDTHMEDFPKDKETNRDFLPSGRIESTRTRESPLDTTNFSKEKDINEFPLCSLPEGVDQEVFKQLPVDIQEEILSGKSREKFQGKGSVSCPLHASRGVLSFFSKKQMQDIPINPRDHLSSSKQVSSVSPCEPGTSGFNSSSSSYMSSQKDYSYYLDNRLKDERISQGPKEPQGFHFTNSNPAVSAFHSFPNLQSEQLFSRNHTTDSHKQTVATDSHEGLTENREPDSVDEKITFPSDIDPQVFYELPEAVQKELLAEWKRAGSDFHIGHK
structure (smiles),measurement,setting,value
Cc1nn(CCc2nn[nH]n2)c2nc(-c3ccc(C4CCCCC4)cc3)cc(C(F)(F)F)c12,Potency,[1],"inconclusive [inhibitor, single point]"
same,Potency,[2],active: 21.3 µM
CC(NC(=O)Nc1ccc(O)cc1)(C(F)(F)F)C(F)(F)F,activation,[3],inactive: 8.6%
same,Potency,[2],inactive
CN(c1ccccc1)c1ccc(/C=C(\CCC(=O)O)c2nc3ccccc3s2)cc1[N+](=O)[O-],Potency,[4],active: 21.5 µM
same,Potency,[2],"inconclusive [inhibitor, full curve]"
Cc1ccc(CNC(=O)c2ccc3c(c2)nc(C)n3-c2cccc(F)c2)cc1,Potency,[5],inactive
Cc1c(OC(C)C(=O)NC(Cc2c[nH]c3ccc(O)cc23)C(=O)O)ccc2c1oc(=O)c1ccccc12 (centres undefined),Potency,[1],"inconclusive [inhibitor, single point]"
same,Potency,[2],active: 13.5 µM
Cc1nn(-c2ccccc2)c(C)c1-c1cc(C(=O)N/N=C/c2ccc(O)cc2)[nH]n1,Potency,[1],active: 42.6 µM
same,Potency,[2],"inconclusive [inhibitor, full curve, poor fit]"
COc1cc(/C=C2\SC(=O)N(CC(=O)Nc3cccc(C)c3)C2=O)cc([N+](=O)[O-])c1O,Potency,[6],active: 75.2 µM
same,Potency,[2],active: 19 µM
CC(=O)Nc1nc(C)c(Oc2ccc(Cl)cc2Cl)c(=O)[nH]1,Potency,[5],inactive
Cc1ccc(S(=O)(=O)NCCC(=O)N2CCC(Cc3ccccc3)CC2)cc1,Potency,[5],inactive
CCN1C(=O)C(=CC=CN(C)c2ccccc2)SC1=S,Potency,[5],"inconclusive [activator, partial curve, poor fit]"
same,Potency,[7],"inconclusive [activator, single point]"
same,Potency,[8],active: 11.2 µM
N=C1/C(=C\c2coc3ccccc3c2=O)C(=O)N=C2SC=CN12,Potency,[5],"inconclusive [activator, partial curve, poor fit]"
same,Potency,[7],"inconclusive [activator, partial curve, poor fit]"
same,Potency,[8],"inconclusive [activator, single point]"
O=C1CCN2C=Nc3cccc4ccc1c2c34,Potency,[5],"inconclusive [activator, partial curve, poor fit]"
same,Potency,[7],"inconclusive [activator, single point]"
same,Potency,[8],active: 11.2 µM
Cc1n[nH]c(C)c1N1C(=O)c2cccc3c(N4CCCCCC4)ccc(c23)C1=O,Potency,[5],"inconclusive [activator, partial curve, poor fit]"
same,Potency,[7],active: 112 µM
same,Potency,[8],active: 12.6 µM
Cc1nc(Cl)c2c(n1)NC1=C(O2)C(=O)CCC1,Potency,[5],"inconclusive [activator, partial curve, poor fit]"
same,activation,[7],"inactive: 10.5% [at 17.1 µM, percent relative to cAMP agonist control]"
same,Potency,[8],"inconclusive [activator, full curve, poor fit]"
COCCn1c(=O)c(-c2cccs2)nc2cnc(N(C)C)nc21,Potency,[9],inactive
same,Potency,[10],"inconclusive [inhibitor, partial curve, poor fit]"
same,Potency,[5],"inconclusive [activator, partial curve]"
same,Potency,[7],"inconclusive [activator, partial curve]"
same,Potency,[11],inactive
Cc1cc(N)c2cc(NC(=O)/C=C/c3ccccc3Cl)ccc2n1,Potency,[5],active: 100 µM
same,Potency,[7],active: 56.2 µM
same,Potency,[8],"inconclusive [activator, full curve, poor fit]"
COc1ccc(/C(O)=C/c2nc3ccccc3n(-c3ccccc3)c2=O)cc1,Potency,[5],"inconclusive [activator, partial curve, poor fit]"
same,Potency,[7],active: 100 µM
same,Potency,[8],"inconclusive [activator, partial curve, poor fit]"
O=C(NCc1cccc(F)c1)c1cccc2c1C(=O)c1ccc(N3CCOCC3)cc1S2(=O)=O,Potency,[5],"inconclusive [activator, single point]"
same,Potency,[7],"inconclusive [activator, single point]"
same,activation,[8],inconclusive: 38.8% [activator]
Nc1cccc2c(O)cc(S(=O)(=O)O)cc12,Potency,[5],active: 50.1 µM
same,Potency,[7],"inconclusive [activator, partial curve]"
same,Potency,[11],active: 0.757 µM
same,Potency,[8],active: 79.4 µM
CN1CC=C2C(C#N)=C(N)C(C#N)(C#N)[C@H](c3cccc(Cl)c3)C2C1 (some centres undefined),"activity change, negative = inhibition",[12],inconclusive: 62.3% [activator]
same,Potency,[3],"inconclusive [inhibitor, partial curve]"
same,Potency,[5],"inconclusive [activator, partial curve]"
same,Potency,[7],"inconclusive [activator, partial curve]"
same,Potency,[11],"inconclusive [inhibitor, partial curve, poor fit]"
same,Potency,[8],"inconclusive [activator, partial curve]"
